{
  "source": "PubChem BioAssay AID686970",
  "about": "(National Center for Advancing Translational Sciences (NCATS), 2013)",
  "note": "Hit rate of the full screen: of about 360,000 compounds, about 6,000 (1.7%) were called active. This list was built around the results that the source calls inconclusive (neither active nor inactive); the mix of calls is not that of the screen. Calls come from the whole dose curve; as a rule, active = well fitted cell-killing curve with a large enough effect; inconclusive = small, poorly fitted or top-dose-only effect, or effect the other way; inactive = flat fitted curve, though single readings scatter. No potency is given beside an inconclusive call; the fits are too rough. Potency is the fitted concentration of half-maximal effect; tags give direction and shape of the fitted curve.",
  "data": [
    {"test": "qHTS for induction of synthetic lethality in tumor cells producing 2HG: qHTS for the HT-1080-NT fibrosarcoma cell line;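 note: NT is the 2HG producing partner of a matched IDH1 knockdown line; nearly all actives have a fitted effect of over 55% in size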;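 for activity, negative = less viability: 0% = DMSO-treated cells and -100% = media-only wells without cells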", "settings": "HT-1080-NT fibrosarcoma viability, CellTiter-Glo ATP luminescence, 48 h; activity, negative = less viability: at 46.1 µM (top of the series) unless noted", "how_it_was_run": "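Viability by CellTiter-Glo luminescence after 48 h compound exposure at 37C of HT-1080-NT cells (750/well, RPMI, 5% FBS). % activity scaled between DMSO wells and medium-only wells, then curve-fitted and categorized by curve class.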", "values": [
      {"compound": "CCn1c(CSc2nc3ccccc3s2)n[nH]c1=S", "Potency": "inconclusive [cytotoxic, single point]"},
      {"compound": "COCCNC(=O)c1ccc2c(c1)ncn2-c1ccc(C)c(Cl)c1", "Potency": "inconclusive [cytotoxic, single point]"},
      {"compound": "Cc1ccccc1S(=O)(=O)NC(=O)C1(C)CCN1C(=O)C1CCCCC1", "note": "(stereo unspecified)", "Potency": "inconclusive [rising, single point]"},
      {"compound": "O=C(Nc1ccc(N2CCN(c3ccc(O)cc3)CC2)cc1)Oc1ccccc1", "Potency": "inconclusive [cytotoxic, single point]"},
      {"compound": "COc1cccc(Nc2nc(C(N)Cc3ccccc3)cs2)n1", "note": "(stereo unspecified)", "Potency": "active: 29.1 µM"},
      {"compound": "Cc1onc(-c2ccccc2Cl)c1C(=O)N1CCN(c2nc3ccccc3s2)CC1", "activity, negative = less viability": "inactive: -8.98%"},
      {"compound": "COc1ccccc1Cc1c(-c2ccco2)nc2c(C)cc(Br)cn12", "Potency": "active: 3.26 µM"},
      {"compound": "CC(Cc1cccs1)NC(=S)Nc1ccc(Cl)c(Cl)c1", "note": "(stereo unspecified)", "Potency": "inconclusive [cytotoxic, single point]"},
      {"compound": "Cc1cc(Br)cn2c(Cc3cccc(F)c3)c(-c3ccc(Cl)cc3)nc12", "Potency": "inconclusive [cytotoxic, partial curve, poor fit]"},
      {"compound": "CCc1ccc(-c2cc(C)no2)cc1S(=O)(=O)N1CCN(C(=O)c2ccco2)CC1", "activity, negative = less viability": "inactive: -26.8%"},
      {"compound": "CN(C)Cc1csc(NC(=O)Nc2ccccc2Cc2ccccc2)n1", "Potency": "active: 14.6 µM"},
      {"compound": "COc1ccc(OCc2cc(C(=O)NC3Cc4ccccc4C3)no2)c(Cl)c1", "Potency": "inconclusive [cytotoxic, single point]"},
      {"compound": "Cc1ccc(NC(=O)C(=O)NCCc2c[nH]c3ccccc23)c(C)c1", "activity, negative = less viability": "inconclusive: -0.486% [cytotoxic]"},
      {"compound": "N/C(Cc1ccc([N+](=O)[O-])cc1)=N\\OC(=O)C(c1ccccc1)c1ccccc1", "Potency": "active: 17.8 µM"},
      {"compound": "CN(C(=O)c1cccc(NC(=O)Cc2cccc(NC(=O)C3CCCN(C(=O)c4ccccc4)C3)c2)c1)C1CC1", "note": "(stereo unspecified)", "activity, negative = less viability": "inactive: 11.7%"},
      {"compound": "COc1ccc(CCC(=O)Nc2ccc(Br)cn2)cc1", "Potency": "inconclusive [cytotoxic, single point]"},
      {"compound": "Cc1sc2nc(C3CC3)nc(SCC(=O)NCc3ccco3)c2c1C", "Potency": "inconclusive [cytotoxic, single point]"},
      {"compound": "Cc1oc(-c2cccc(Cl)c2)nc1CN1CCC(C(=O)N2CCN(c3ccccc3F)CC2)CC1", "Potency": "inconclusive [cytotoxic, single point]"},
      {"compound": "CCCN(CCC)C(=O)c1cc(-c2ccc3c(c2)OCO3)nc2ccccc12", "activity, negative = less viability": "inactive: -13.2%"},
      {"compound": "CC1CCN(C(=O)C2CCN(c3nnc(-n4cccc4)s3)CC2)CC1", "activity, negative = less viability": "inactive: 4.04%"},
      {"compound": "Cc1cc(OCc2cc(C(=O)N(Cc3nccn3C)C(C)C)no2)cc(C)c1Cl", "Potency": "inconclusive [cytotoxic, single point]"},
      {"compound": "CCCc1[nH]c2ccc(C#N)cc2c1CCC", "Potency": "inconclusive [cytotoxic, single point]"},
      {"compound": "CN(C)c1ccc(/C=N/NC(=O)c2ccco2)cc1", "activity, negative = less viability": "inactive: -13.4%"},
      {"compound": "Cc1ccccc1N1C(=O)C2C3CC(=O)C(c4ccccc43)C2C1=O", "note": "(stereo unspecified)", "activity, negative = less viability": "inactive: -6.97%"},
      {"compound": "O=c1c(Br)c(Br)cnn1-c1ccccc1", "Potency": "active: 2.91 µM"},
      {"compound": "CCOC(=O)[C@]12CCCC=C1N(Cc1ccc(Cl)cc1Cl)C(=O)[C@H](CC(=O)NCc1ccc(OC)c(OC)c1)C2", "Potency": "inconclusive [cytotoxic, single point]"},
      {"compound": "COc1ccccc1CCNC(=O)C(=O)NCC1CCCN1S(=O)(=O)c1ccccc1", "note": "(stereo unspecified)", "Potency": "inconclusive [cytotoxic, partial curve]"},
      {"compound": "COc1cc(F)ccc1CN1CCC(C(=O)Nc2ccc(Oc3ccccc3)nc2)CC1", "Potency": "inconclusive [cytotoxic, partial curve]"},
      {"compound": "COc1ccc(NC(=O)c2ccc(-c3ccc(-c4noc(C)n4)cc3C)cc2)cc1N1CCN(C)CC1", "Potency": "active: 8.2 µM"},
      {"compound": "CN1CCN(c2ccccc2NC(=O)c2ccc(N3CCCC3)c([N+](=O)[O-])c2)CC1", "Potency": "active: 13 µM"},
      {"compound": "COc1ccc(Nc2nnc(C)c(=O)[nH]2)c(OC)c1", "Potency": "inconclusive [rising, single point]"},
      {"compound": "CCOCCc1c(O)nc(SCC)[nH]c1=O", "activity, negative = less viability": "inactive: 11.2%"},
      {"compound": "COC(=O)[C@@]1(Cc2ccc(F)cc2)[C@H]2c3cc(C(=O)N(C)C)n(Cc4ccc(C)o4)c3C[C@H]2CN1C(=O)c1ccccc1", "Potency": "inconclusive [cytotoxic, single point]"},
      {"compound": "COc1cc(/C=N/N=C2/SCC(=O)N2c2ccc(O)cc2)ccc1O", "activity, negative = less viability": "inactive: -5.3%"},
      {"compound": "COc1cc(/C=N/NC(=O)C2CC(=O)N(c3ccc(C)cc3)C2)cc(OC)c1OC", "note": "(stereo unspecified)", "activity, negative = less viability": "inactive: -1.99%"},
      {"compound": "CCN1CCN(Cc2ccc(NC(=O)c3ccc(C)c(NC(=O)c4cccc5[nH]ccc45)c3)cc2C(F)(F)F)CC1", "Potency": "inconclusive [cytotoxic, single point]"}
    ]}
  ]
}
